Source: PubChem BioAssay AID1159614 (National Center for Advancing Translational Sciences (NCATS), 2016)
Hit rate of the full screen: of about 45,000 compounds, about 65 (0.1%) were called active. Calls come from the whole dose curve; as a rule, active = well fitted activation curve with a large enough effect; inconclusive = small, poorly fitted or top-dose-only effect; inactive = no such curve, though single readings can be large or run the other way. This is one part of the list.

target: Galactocerebrosidase (Homo sapiens) (UniProt P54803); test: A Novel Cell-Based Assay to Identify Small Molecules for B -Galactocerebrosidase; conditions: 145M-Twi-hGALC-G270D cells (Twitcher mouse brain line with human GALC G270D), HMU-beta-Gal fluorescence, 48 h; series mostly up to 57.5 µM; activation: at the top concentration; note: 0% is about no effect; nearly all actives have a fitted effect of over 65% in size
Outline: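 Brain-derived Twitcher mouse 145M-Twi cells stably expressing human GALC-G270D or wild-type GALC, treated live, then residual GALC activity read by fluorescence of HMU-b-Gal substrate (0.1 mM final) in citrate-phosphate buffer pH 5.2 with sodium taurocholate. Signal increase indicates enhancement.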

Sequence of UniProt P54803 (P54803 whole entry, looked up): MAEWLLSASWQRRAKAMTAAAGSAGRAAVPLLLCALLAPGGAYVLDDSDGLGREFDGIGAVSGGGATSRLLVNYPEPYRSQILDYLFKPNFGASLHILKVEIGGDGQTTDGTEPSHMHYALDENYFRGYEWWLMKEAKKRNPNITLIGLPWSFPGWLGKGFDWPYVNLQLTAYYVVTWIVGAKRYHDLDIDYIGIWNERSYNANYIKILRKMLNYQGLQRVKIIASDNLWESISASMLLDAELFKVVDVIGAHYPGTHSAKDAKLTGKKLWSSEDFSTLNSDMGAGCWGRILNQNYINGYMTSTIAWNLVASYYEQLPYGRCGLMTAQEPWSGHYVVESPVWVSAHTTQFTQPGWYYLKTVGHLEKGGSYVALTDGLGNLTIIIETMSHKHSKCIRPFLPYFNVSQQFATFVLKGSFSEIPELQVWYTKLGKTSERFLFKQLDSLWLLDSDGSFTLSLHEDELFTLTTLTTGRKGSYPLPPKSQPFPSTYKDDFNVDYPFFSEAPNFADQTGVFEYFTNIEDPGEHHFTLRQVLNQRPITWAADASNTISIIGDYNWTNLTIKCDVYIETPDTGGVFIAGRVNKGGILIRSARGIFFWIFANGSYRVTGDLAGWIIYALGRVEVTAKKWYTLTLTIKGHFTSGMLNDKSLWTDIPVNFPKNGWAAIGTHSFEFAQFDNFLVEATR

activation, inactive:
O=C(Cn1c(=O)n2nc(-c3cccc(F)c3)nc2c2ccccc21)NCc1ccc(Cl)cc1 -11.2%
CN(C)c1ccc(CNC(=O)c2sc3ncccc3c2-n2cccc2)cc1 -30.7%
CC1CCN(c2nc(-c3ccc(Br)cc3)nc3ccccc23)CC1 -16.4%
Cc1cc(C)cc(NC(=O)CCN2C(=O)c3ccccc3Sc3ncccc32)c1 8.79%
COc1ccccc1CNC(=O)CS(=O)(=O)Cc1nc(-c2ccccc2C)oc1C -3.59%
CSc1ccc(CNC(=O)Cn2ccc3cc(S(=O)(=O)N4CCCC4)ccc32)cc1 -7.39%
CC(C)CCNC(=O)CSc1nc2ccccc2nc1Cc1ccc(Cl)cc1 -18%
CN(C)c1ccc(C(=O)NCc2ccc3c(c2)CCN3C(=O)c2ccccc2)cc1 -13.5%
COc1cccc(CNC(=O)CN2C(=O)CSc3ccc(S(=O)(=O)N4CCCC4)cc32)c1 -19.8%
COCCn1c(C)cc(O)c(C(c2ccc(Cl)cc2)N2CCCCC2)c1=O (stereo not given) -24.7%
Cc1cc(C)c(NC(=O)CN2C(=O)CCSc3ccc(S(=O)(=O)N4CCCC4)cc32)c(C)c1 -27.3%
COc1ccc(C2C(=O)N(C3CCCCC3)CC(=O)N2C2CCCCC2)cc1 (stereo not given) -10.3%
CC1CCCCN1CCCNC(=O)Cn1ncc2c3ccccc3n(Cc3ccccc3F)c2c1=O (stereo not given) -6.23%
COc1cc(Cl)c(NS(=O)(=O)c2ccc(-c3coc(C)n3)cc2)c(OC)c1 -38.5%
Cc1ccc(-c2cc(C(F)(F)F)c(C#N)c(SCC(=O)Nc3ccccc3F)n2)cc1 -24%
CCN(c1ncnc2c1cnn2-c1cccc(Cl)c1)C1CCCCC1 -13.8%
Cc1ccc(-n2c(=O)c3ccccc3n(CC(=O)Nc3cccc(C(F)(F)F)c3)c2=O)cc1 -5.11%
Cc1cccc(N2CCN(C(=O)c3nn(C)c4c3CS(=O)(=O)c3ccccc3-4)CC2C)c1 (stereo not given) -12.3%
CCN(Cc1ccccc1)C(=O)C(CC(C)C)NS(=O)(=O)c1ccc2c(c1)CCN2C(C)=O (stereo not given) -0.904%
O=C(Nc1ccc2nc(SCC(=O)N3CCOCC3)sc2c1)c1ccc(Cl)cc1 -12.6%
O=C(c1ccccc1)N1CCCCC1CCN1CCCCC1 (stereo not given) -11.7%
Cc1ccc(C)c(Nc2nn3c(=O)c4ccc(C(=O)NCc5cccs5)cc4nc3s2)c1 -12.7%
COc1cccc(N2CCN(c3ncnc4onc(-c5ccc(Cl)cc5)c34)CC2)c1 -26.2%
CN(C1CCCCC1)S(=O)(=O)c1ccc2c(c1)c(=O)c(C(=O)NCc1ccc(Cl)cc1)cn2C -12.9%
O=C(CN1C(=O)CC(c2ccc(F)cc2)=Nc2ccccc21)NCc1ccccc1Cl -15.4%
O=C(Cn1c(=O)n(-c2ccccc2)c(=O)c2sc3ccccc3c21)NC1CCCC1 -8.33%
N#C/C(=C\c1ccc(Cl)cc1)c1nc(-c2cc3c(ccc4ccccc43)oc2=O)cs1 -2.3%
Cc1ccc(OCC(=O)Nc2ccc(S(=O)(=O)N(Cc3ccccc3)c3ccccc3)cc2)cc1 -37.9%
CCCCn1cc(S(=O)(=O)c2ccc(Cl)cc2)c(=O)c2cc(F)c(N3CCCCC3)cc21 0.14%
Cn1c(SCc2ccc(F)cc2)nc2ccc(C(=O)NCc3ccccc3)cc21 -24.6%
Cc1cc(C)c2oc(C(=O)Nc3c(C(=O)Nc4ccccc4)oc4ccccc34)cc(=O)c2c1 -4.48%
O=C(C1CCN(c2nc3ccccc3[nH]2)CC1)N1CCN(c2cccc(Cl)c2)CC1 -19.5%
Cc1cc(C(C)(C)C)c(O)c(C)c1CC1=NCCN1 -12.4%
CSC1=NC2(CCN(C(=O)NC3CCCCC3)CC2)N=C1c1ccc(C(C)(C)C)cc1 -11.4%
COc1cccc(N2C(=O)CSC23C(=O)N(CC(=O)NCc2ccc(C)cc2)c2ccccc23)c1 (stereo not given) -22.4%
NC(Cc1ccc(Cl)cc1)C(=O)O (stereo not given) -16.8% [at 0.46 µM]
CCc1ccc2occ(CC(=O)Nc3sc4c(c3C(=O)OC)CCC4)c2c1 -14.9%
Cc1nc2ccc(S(=O)(=O)NC(C(=O)NCc3ccc(Cl)cc3)C(C)C)cc2s1 (stereo not given) 7.69%
CCOC(=O)c1c(-c2ccc(OC)c(OC)c2)csc1NC(=O)c1ccc(F)cc1 -12.4%
Cc1cccc(C(=O)Nc2ccccc2C(=O)OCc2cc(=O)n3nc(C4CC4)sc3n2)c1 -17.1%
CC(C)c1ccc(NC(=O)C2CCCN(S(=O)(=O)c3ccc4[nH]c(=O)ccc4c3)C2)cc1 (stereo not given) -15.6%
CCc1ccc(Cn2nnc(C(=O)Nc3ccc(C)cc3)c2N)cc1 3.43%
CN(C)CCCN1c2ccccc2Sc2ccccc21 -11.9%
Cc1ccc(Nc2c(-c3ccc(N4CCOCC4)cc3)nc3ncccn23)cc1C -14.2%
COc1cc(NC(=O)Cn2cnc3sc(C)c(S(=O)(=O)N4CCN(C)CC4)c3c2=O)cc(OC)c1OC -8.6%
CCOC(=O)c1ccc2c(c1)N(CC(=O)Nc1ccc(CC)cc1)C(=O)c1ccccc1S2 -25.5%
COc1cccc(CNCCSc2nnnn2C)c1OCc1ccc(Cl)cc1 17.5%
CCCN(CCC)CCCNC(=O)c1cn(CC)c2ccc(S(=O)(=O)N3CCc4ccccc4C3)cc2c1=O -3.54%
O=C(CSc1oc(-c2ccco2)nc1S(=O)(=O)c1ccccc1)c1ccc(Cl)cc1 -25.8%
CCN(c1ccc(C)cc1C)S(=O)(=O)c1nnc(NC(=O)c2ccccc2OC)s1 -16.2%
CCOC(=O)c1oc2ccc(S(=O)(=O)n3nc(-c4cc(OCC)c(OCC)c(OCC)c4)cc3N)cc2c1C -22.5%
CCOC(=O)c1ccc(NC(=O)CC2C(=O)N(c3ccccc3)C(=O)N2C2CCCCC2)cc1 (stereo not given) -18.5%
CCOc1cccc(C(=O)Nc2ccc(NC(=O)c3ccc(Br)cc3)cc2)c1 -10.5%
CCCc1cnc2c(c1SCC(=O)Nc1cccc(C)c1C)c(=O)n(C)c(=O)n2C -12.2%
CCOc1ccc(-c2nonc2NC(=O)COc2ccccc2)cc1 -10.5%
CCc1ccc(N2CCn3c2nc2c3c(=O)n(CCCc3ccccc3)c(=O)n2C)cc1 -9.11%
CCOC(=O)c1ccc(NC(=O)c2c(NCc3cc(OC)c(OC)cc3OC)sc3c2CCCC3)cc1 -15.3%
CCN1CCN(c2cc3c(cc2F)c(=O)c(S(=O)(=O)c2cc(C)cc(C)c2)cn3CC)CC1 -5.67%
COc1ccc(-n2cc(-c3ccccc3)c3c(NCCc4ccc(OC)c(OC)c4)ncnc32)cc1 -0.0032%
NS(=O)(=O)c1cc(C(=O)O)cc(N2CCCC2)c1Oc1ccccc1 -10%
